Data from the supplement of paper PMC3334620.
Whole data set: some 33,000 sequences, median “E-score (-0.5 to 0.5)” near -0.056, cut for the highest 2% near 0.38. The list shows a part of the results.

The sequences below were run against Stb4 (UniProt P50104) (assay: PBM E-score (8-mer binding enrichment) (E-score (-0.5 to 0.5)); higher = stronger / more preferred TF binding; most listed sequences are background and not binding sites). Conditions: protein concentration: 200 nM; construct: GST-DNA-binding domain.
In short: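 Full-length yeast transcription factors or their DNA-binding domains, GST-tagged and expressed with PURExpress, were applied at about 100-200 nM to universal all-10-mer Agilent arrays. These arrays had been made double-stranded by primer extension on fresh or once-stripped slides. Detection used fluorescent anti-GST, normalisation used masliner, and E-scores for ungapped eight-base words pooled with reverse complements came from the Universal PBM Analysis Suite.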

Sequence | PBM E-score
AAACCGGT | 0.16
GCGGTCCA | -0.104
GAGGTCAA | -0.0297
ATCCAACC | -0.0333
GAAGAGGC | -0.016
AGCGTAGG | -0.0217
GCTGAGAC | -0.0112
GATGCAAA | -0.106
CGAGCTAA | 0.184
AGGCCTAT | -0.218
GCTAATGA | -0.129
AACATCCT | -0.0622
GCTGGAGA | -0.269
GGCGTGAC | -0.156
GATGCCGA | 0.411
ACACTTGC | -0.118
GTATAACA | -0.139
AGACGGCT | 0.125
GCCGGGTA | 0.353
ATACTCAG | -0.0187
CCATGATA | -0.0894
AGAGACCT | -0.212
GTGCACCA | -0.103
ACATAAGC | -0.126
CATCTAGA | -0.117

Sequence | PBM E-score
ACTTTTAG | -0.087
TGTTAACA | -0.21
GATTCGGA | 0.43
ACGTGTCG | -0.0915
GCTAGGAC | -0.0447
TCCCTCAA | -0.018
GGATATAA | 0.214
CCTACCCA | -0.208
CATTGGCC | -0.132
ATGGTCGC | -0.0565
ACACAGCC | 0.0836
GCTGCGAA | -0.0917
CGACACAA | -0.126
AGATCACT | 0.0171
GGTTCTTA | 0.0492
TACGTCTA | -0.241
CAGATAGC | -0.0171
GGCCGGGA | 0.289
AATCACAT | 0.0658
AAGTACTT | -0.0255
AGGTCGTC | -0.0455
ACACACAT | -0.0582
GACTCTCA | -0.136
GCCTCGGA | 0.444
CAGTTGAG | -0.309

Sequence | PBM E-score
TTCCAGAA | -0.0529
CTTACCCA | -0.113
AGGATCAG | -0.233
GAGATACA | 0.0353
CTGCAATA | -0.0207
ACTTCAGC | -0.187
GATAGGAA | -0.0175
GGATTACC | 0.208
TGTGACAA | -0.151
AAGCGTGG | -0.0265
AGAACGCT | -0.244
AAGAAATT | 0.151
GACCTACA | -0.127
CCAATACG | -0.0591
GACACGGA | 0.328
AAAGACGT | -0.0958
CATGGTAG | -0.12
GATACAAA | -0.0247
CAGCGGGG | -0.13
ACAGCAAC | -0.0154
GTTTCCTA | -0.177
ATCCTAAG | -0.239
AAAACGGA | 0.229
CATTGTAC | 0.0212
CGTATCAC | -0.231

Sequence | PBM E-score
GCCTAGTA | -0.0525
AGAGTTAC | -0.165
CATTATAA | 0.0189
GATGGAAC | -0.0089
AATGTTTG | -0.0254
ACAGTTGG | -0.193
AAGCATAG | -0.205
ATTATCGA | -0.195
GGGGTCGA | 0.0254
CATCATAC | -0.166
GACTGAGC | -0.25
ATATCGAG | -0.0124
ACGAAGCA | -0.307
AATGCTCT | -0.155
CCCTCCTA | -0.175
GCAAATAC | -0.0869
GAGGGTCA | -0.152
GTACATGA | -0.123
CACCACGC | -0.217
CAACGAGG | -0.209
CATAAGCC | 0.053
CTGGCATA | -0.103
TCTAGTCA | -0.0798
CCGCGGTA | 0.294
CAACGAGA | 0.0206

Sequence | PBM E-score
GCTCTTAC | -0.125
TGCTCAAA | 0.0404
ACCGATTG | 0.0598
TAGACAGA | -0.179
AACATGCT | -0.052
GTAACGAA | -0.0433
CAATATTG | -0.381
AGATTCAA | 0.0199
CGGGGCCC | 0.159
AATTGTCA | -0.179
CCCATACG | -0.108
CGTATGCA | -0.0792
AAAAGAGT | -0.059
AGAGAGGC | -0.218
CAGCCAGA | 0.0384
GAAAGCTC | -0.115
AGAGCTCA | -0.238
ACCTCATA | -0.129
ATGTGTAG | 0.114
CTCGTGTA | -0.0131
GCGATCGC | -0.0276
GGAGGTAA | 0.00055
CGGTCCTC | 0.106
CAGGTGAC | -0.223
GGTCATGA | -0.153

Sequence | PBM E-score
CGAAACTA | 0.165
CCTCGCGC | -0.0639
AGTGCAAT | -0.18
ATCTAGAG | -0.189
ATCTATGA | -0.0937
AGGCCCCG | 0.068
CCTAGACA | -0.217
CTCATAAA | -0.0904
ATACCTGA | -0.104
CGATTTGC | 0.173
GATTACAA | 0.00563
GGGACAGA | -0.0148
ATTGGTCG | -0.0654
TCAAGCGA | -0.179
CGCGACGC | 0.00739
CGTACTCA | -0.1
CCGGCGCA | 0.28
CAAGACAC | -0.132
GGCTTGAC | -0.0779
ACAATGAA | -0.217
AGCCGGTA | 0.288
CGCTGTGA | -0.276
CCCCCCAG | -0.272
CACACCTC | 0.0336
CCAATAGC | -0.176

Sequence | PBM E-score
CTGGACAG | -0.0848
ATTAATTG | -0.0146
ACGTTCCC | 0.11
CGTCCAAA | 0.0827
AACTTGTG | -0.0682
AGAATCTA | -0.117
ATGGGAAG | -0.0949
AAACGATA | -0.0983
ATTTTAGG | -0.171
ATAGCGTA | 0.0356
CTTGCAAG | 0.16
TACCCTGA | -0.169
ATATGTTA | -0.101
CTGACGAC | -0.1
ACAGCATC | -0.102
AATGAGGA | -0.193
AAGTACTG | -0.0747
GTGCCCGA | 0.22
ACACGCCG | 0.288
AAACACAA | -0.103
ACATCCCG | 0.369
AGACGCGA | -0.0481
CTTGCGTA | -0.171
CACCGACA | 0.0883
AGAGTGAG | -0.228

Sequence | PBM E-score
AACGGGTA | 0.349
CGGAGGAC | 0.206
AAAAGTAG | -0.1
ACTTGTCA | -0.00102
AGCAAGAC | -0.00087
CCAGACTC | -0.0717
GTATGGTA | -0.241
TATAGTCA | -0.232
AAGCTGAG | -0.167
CTAAGAGA | -0.179
CGAGAACC | 0.266
CCCCTAGG | -0.135
GAGAGCAC | 0.0715
GACAGTAC | 0.0451
GCAGAAAC | -0.138
AGATCGCG | 0.0394
AAGTTACG | 0.023
ACTAAAAG | -0.00624
GACACGCA | -0.0418
GCTAGATA | -0.118
CACCACTA | -0.0752
GTAGATAC | -0.172
CAGGACCC | -0.0217
CGCAGTGA | -0.0931
ATTGTAAC | -0.0318

Sequence | PBM E-score
CCACGAAC | -0.155
ACATGACG | -0.178
CCAGGACG | -0.18
GCAGGTCC | -0.0506
CTTAGTTC | -0.0641
ACCGTTCT | -0.0204
GAATCTAC | -0.0991
GAGTGCAA | 0.0454
AAGACGGC | -0.0316
TCAAAGGA | -0.205
ATGTTATG | 0.0361
ACCACAGT | -0.0147
CGCAATGC | 0.0575
AGAGCTTG | -0.238
ATTCACAG | -0.109
ATGAGAGG | -0.118
AGCCCGTA | -0.159
ACGAAGAA | -0.0766
GCCACTCC | 0.00528
AACGTTTA | -0.0617
GTACGATA | -0.357
ACGCCGGA | 0.29
ACGGAATA | 0.323
AAACACCC | 0.167
CCCGTCGC | -0.00272

Sequence | PBM E-score
CAAAATTA | 0.0863
CTGCTTCA | -0.269
CCCCAAGG | -0.261
CGTCATAA | 0.077
AAACATGT | -0.00346
CCAACTGA | -0.189
GTTGCACA | -0.207
AAATCCAC | -0.177
ATTTTTTC | 0.278
ATATACTG | 0.0269
AGGCAAGC | -0.188
CGTCCCTA | -0.0426
CTGGCTGC | -0.108
CATGATAC | 0.121
CGAGATTC | 0.229
CCAAGTAG | -0.308
CCTGGTCG | 0.0328
CTTTTGCC | 0.0374
ATTTCCTG | -0.0528
GAGACCCC | 0.0379
GGACAGCA | -0.0714
CGAATGAA | 0.0337
ACTGCTAG | -0.239
AGGGGGGG | -0.356
AGACTTTG | -0.234

Sequence | PBM E-score
AATTTTGA | -0.0291
GATCAGTA | -0.0566
CCAAGGAA | 0.0787
AAAGTGTC | -0.00674
ACTATGGA | -0.238
CCCGTCGA | 0.102
GATAAAAA | 0.152
CATAGGCA | -0.204
CGCCTAGA | -0.0246
GGGAAGTA | 0.184
GGTCCTAA | 0.0238
TCCCCGAA | 0.37
CAATCGCA | -0.123
ACGACTCA | 0.0822
CGCCCACG | -0.0319
CCGCTGTA | 0.0877
GACGCATC | 0.122
GTCACTTA | 0.0135
TTAATTAA | -0.3
ATGGGCCG | 0.143
GGATCTGA | 0.219
ATTCGTCA | -0.114
ACCCTGAC | -0.0728
AGTATCTA | -0.242
AGTGTGCG | 0.0389

Sequence | PBM E-score
CCTTAGGC | -0.179
ACGATTCC | 0.06
ATGGTGTC | -0.0683
ATGGTATC | 0.089
GTTATTGA | -0.0873
CAATGGGA | -0.0868
TAGGTATA | -0.103
GAATGGAC | -0.0937
CCGTATTA | 0.183
AAATATGC | 0.00259
AAATCCCA | -0.122
CCAACCGC | 0.059
TCCGCCCA | 0.162
GGTGGCTA | -0.106
AAGATTAT | 0.113
GATTATTA | 0.17
AATTTAGA | -0.00117
TAATACAA | -0.0486
CCGGGTCC | 0.237
GTTGCAGA | -0.0619
TTCTACAA | -0.129
TCCCTTAA | -0.364
GCGTTCAA | -0.0369
CTTAAATC | -0.0323
TCAAGTAA | -0.19

Sequence | PBM E-score
ATAAGCCG | 0.315
CTCGTTCA | -0.122
CCTAAAAA | -0.0526
TGGCAAAA | -0.121
CCAGTTAC | -0.082
ATCCCAGG | -0.0327
ACGAAGTG | -0.167
ACAATTAT | 0.0362
ATTTGTGG | -0.0839
ACCAGACT | -0.255
CCCCTATC | -0.0491
GAAGAGCC | 0.195
AGTCCGTA | -0.0959
ATATAGTG | 0.0301
ACTCGCAC | -0.013
ACCGCACG | -0.0588
AATGTTCC | 0.218
CCCGTCGG | 0.386
GTTCACTA | 0.0434
CAATTGCG | -0.0138
GCCCCAAC | -0.0431
AGGTCATC | -0.0883
ATCAACTG | -0.046
ACAGCCTA | -0.0622
GCCGTTAA | 0.0637

Sequence | PBM E-score
AAGAGGTC | -0.0783
CTTTGCAC | -0.123
ACATAGCG | -0.168
GCATCCTA | -0.163
CAGGAGAC | -0.147
CAATGGTC | -0.203
CAAATCCG | 0.232
TCAGTGCA | -0.142
AAAGGTTC | 0.0344
CACAACAG | -0.278
CTTGGTCC | 0.0297
AGAATACG | -0.0662
AAGGGAAG | -0.0989
CAGCAGGA | -0.246
AACCGGGA | 0.231
GAACACAC | -0.0596
AGAAGTTC | -0.0927
CTATACGC | -0.092
CTGCTTCC | 0.0659
